The other results are listed elsewhere or left out.

The test concerns the target T1, MBP-FoxP1dN (Mus musculus, UniProt P58462 326-579).
T1 sequence: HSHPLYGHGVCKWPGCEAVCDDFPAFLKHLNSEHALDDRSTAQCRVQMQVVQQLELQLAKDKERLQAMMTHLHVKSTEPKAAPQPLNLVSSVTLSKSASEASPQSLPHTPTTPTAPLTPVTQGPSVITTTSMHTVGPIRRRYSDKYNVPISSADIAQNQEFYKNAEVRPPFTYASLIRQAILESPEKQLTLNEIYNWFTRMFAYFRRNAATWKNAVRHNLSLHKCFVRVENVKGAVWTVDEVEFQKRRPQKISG
Put plainly: PD-seq (MBP pull-down with sequencing); 20 mM Tris-HCl pH 7.5, 100 mM NaCl, 1.5 mM MgCl2, 0.4 uM protein, 0.1 uM dsDNA library, 30 min, room temperature, amylose pull-down; high values mean tight binding. The following applies: protein: recombinant; tags: His6-MBP; chain copies: 2; dsDNA, one strand shown. A digest of the protocol:
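Amylose resin was used to capture complexes formed during 30 min at room temperature in Tris pH 7.5 buffer with NaCl and MgCl2 between 0.4 µM His6-MBP-tagged mouse FoxP3 or FoxP1 fragment lacking the N-terminus, expressed in E. coli, and 0.1 µM Klenow-filled double-stranded degenerate DNA library. After three washes, the DNA was released with proteinase K, barcoded by PCR and sequenced on Illumina. Binding is pooled-replicate reads-per-million enrichment, pull-down over input.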
For the sequence “GATGATTGTTCTCCCAGCTGATGAATTAAGCGCGTCGAGTAAACAAATTTTCCTAATCTTTCTGTTCAAGCGCCATCTAC”, the binding signal is 0.993 RPM ratio (pull-down/input). Regarding “GATGATTGTTCTCCCAGCTGATGAATTGAAGTCGTCGAGTAAACAAATTTTCCTAATCTTTCTGTTCAAGCGCCATCTAC”, the binding signal was 0.782 RPM ratio (pull-down/input). The result for “GATGATTGTTCTCCCAGCTGATGAATTGAGTGCATCGAGTAAACAAATTTTCCTAATCTTTCTGTTCAAGCGCCATCTAC” reads 1.33 RPM ratio (pull-down/input).

“GATGATTGTTCTCCCAGCTGATGAATTGAGGAGGTCGAGTAAACAAATTTTCCTAATCTTTCTGTTCAAGCGCCATCTAC”: the binding signal is 0.749 RPM ratio (pull-down/input). In the case of “GATGATTGTTCTCCCAGCTGATGAATTCTGGGCGTCGAGTAAACAAATTTTCCTAATCTTTCTGTTCAAGCGCCATCTAC” it was 0.81 RPM ratio (pull-down/input); in that of “GATGATTGTTCTCCCAGCTGATGAATTGTACCTCTCGAGTAAACAAATTTTCCTAATCTTTCTGTTCAAGCGCCATCTAC”, 0.934 RPM ratio (pull-down/input).

On to “GATGATTGTTCTCCCAGCTGATGAATTCCACGCTTCGAGTAAACAAATTTTCCTAATCTTTCTGTTCAAGCGCCATCTAC”, for which the binding signal was 0.913 RPM ratio (pull-down/input).

On to “GATGATTGTTCTCCCAGCTGATGAATTTTGCTATTCGAGTAAACAAATTTTCCTAATCTTTCTGTTCAAGCGCCATCTAC”, for which the binding signal was 1.32 RPM ratio (pull-down/input). The result for “GATGATTGTTCTCCCAGCTGATGAATTTTTTTTGTCGAGTAAACAAATTTTCCTAATCTTTCTGTTCAAGCGCCATCTAC” reads 0.87 RPM ratio (pull-down/input); that for “GATGATTGTTCTCCCAGCTGATGAATTAATTTATTCGAGTAAACAAATTTTCCTAATCTTTCTGTTCAAGCGCCATCTAC”, 1.06 RPM ratio (pull-down/input). The result for “GATGATTGTTCTCCCAGCTGATGAATTTTACTAATCGAGTAAACAAATTTTCCTAATCTTTCTGTTCAAGCGCCATCTAC” reads 1.14 RPM ratio (pull-down/input).

With “GATGATTGTTCTCCCAGCTGATGAATTCATAGGATCGAGTAAACAAATTTTCCTAATCTTTCTGTTCAAGCGCCATCTAC”, the binding signal is 0.848 RPM ratio (pull-down/input). In the case of “GATGATTGTTCTCCCAGCTGATGAATTCACTCTGTCGAGTAAACAAATTTTCCTAATCTTTCTGTTCAAGCGCCATCTAC”, the binding signal was 0.841 RPM ratio (pull-down/input).

For “GATGATTGTTCTCCCAGCTGATGAATTCACCTACTCGAGTAAACAAATTTTCCTAATCTTTCTGTTCAAGCGCCATCTAC”, the binding signal is 0.921 RPM ratio (pull-down/input). The result for “GATGATTGTTCTCCCAGCTGATGAATTATCAATATCGAGTAAACAAATTTTCCTAATCTTTCTGTTCAAGCGCCATCTAC” reads 1.96 RPM ratio (pull-down/input). The result for “GATGATTGTTCTCCCAGCTGATGAATTGAGGCGTTCGAGTAAACAAATTTTCCTAATCTTTCTGTTCAAGCGCCATCTAC” reads 0.946 RPM ratio (pull-down/input). The result for “GATGATTGTTCTCCCAGCTGATGAATTCGTAATCTCGAGTAAACAAATTTTCCTAATCTTTCTGTTCAAGCGCCATCTAC” reads 0.951 RPM ratio (pull-down/input); that for “GATGATTGTTCTCCCAGCTGATGAATTCGTTAGTTCGAGTAAACAAATTTTCCTAATCTTTCTGTTCAAGCGCCATCTAC”, 0.899 RPM ratio (pull-down/input). With “GATGATTGTTCTCCCAGCTGATGAATTTGAACCTTCGAGTAAACAAATTTTCCTAATCTTTCTGTTCAAGCGCCATCTAC”, the binding signal is 0.834 RPM ratio (pull-down/input). In the case of “GATGATTGTTCTCCCAGCTGATGAATTTCCCATATCGAGTAAACAAATTTTCCTAATCTTTCTGTTCAAGCGCCATCTAC” it was 0.915 RPM ratio (pull-down/input); in that of “GATGATTGTTCTCCCAGCTGATGAATTGAGTTCGTCGAGTAAACAAATTTTCCTAATCTTTCTGTTCAAGCGCCATCTAC”, 0.82 RPM ratio (pull-down/input). The result for “GATGATTGTTCTCCCAGCTGATGAATTTCTATCCTCGAGTAAACAAATTTTCCTAATCTTTCTGTTCAAGCGCCATCTAC” reads 0.887 RPM ratio (pull-down/input).

For the sequence “GATGATTGTTCTCCCAGCTGATGAATTATCTATTTCGAGTAAACAAATTTTCCTAATCTTTCTGTTCAAGCGCCATCTAC”, the binding signal was 1.03 RPM ratio (pull-down/input). The result for “GATGATTGTTCTCCCAGCTGATGAATTCGTTACCTCGAGTAAACAAATTTTCCTAATCTTTCTGTTCAAGCGCCATCTAC” reads 0.98 RPM ratio (pull-down/input). In the case of “GATGATTGTTCTCCCAGCTGATGAATTGTGTCCCTCGAGTAAACAAATTTTCCTAATCTTTCTGTTCAAGCGCCATCTAC” it was 1.12 RPM ratio (pull-down/input); in that of “GATGATTGTTCTCCCAGCTGATGAATTTAATAGTTCGAGTAAACAAATTTTCCTAATCTTTCTGTTCAAGCGCCATCTAC”, 0.986 RPM ratio (pull-down/input); in that of “GATGATTGTTCTCCCAGCTGATGAATTTACGGTTTCGAGTAAACAAATTTTCCTAATCTTTCTGTTCAAGCGCCATCTAC”, 1.24 RPM ratio (pull-down/input). For the sequence “GATGATTGTTCTCCCAGCTGATGAATTGGCCCTATCGAGTAAACAAATTTTCCTAATCTTTCTGTTCAAGCGCCATCTAC”, the binding signal is 0.846 RPM ratio (pull-down/input). In the case of “GATGATTGTTCTCCCAGCTGATGAATTCGGTTATTCGAGTAAACAAATTTTCCTAATCTTTCTGTTCAAGCGCCATCTAC” it was 0.93 RPM ratio (pull-down/input); in that of “GATGATTGTTCTCCCAGCTGATGAATTAGCCTTCTCGAGTAAACAAATTTTCCTAATCTTTCTGTTCAAGCGCCATCTAC”, 0.881 RPM ratio (pull-down/input); in that of “GATGATTGTTCTCCCAGCTGATGAATTAGGAGCCTCGAGTAAACAAATTTTCCTAATCTTTCTGTTCAAGCGCCATCTAC”, 0.863 RPM ratio (pull-down/input).

The values above are taken from PMC12820563, “FoxP3 forms a head-to-head dimer in vivo and stabilizes its multimerization on adjacent microsatellites”.
